The record followed here is PMC7819943, “Rice protein-binding microarrays: a tool to detect cis-acting elements near promoter regions in rice”.

Some of the results follow.

The target of this assay is T1, OsWOX13 (Oryza sativa, UniProt Q5QMM3 1-267).
T1 sequence: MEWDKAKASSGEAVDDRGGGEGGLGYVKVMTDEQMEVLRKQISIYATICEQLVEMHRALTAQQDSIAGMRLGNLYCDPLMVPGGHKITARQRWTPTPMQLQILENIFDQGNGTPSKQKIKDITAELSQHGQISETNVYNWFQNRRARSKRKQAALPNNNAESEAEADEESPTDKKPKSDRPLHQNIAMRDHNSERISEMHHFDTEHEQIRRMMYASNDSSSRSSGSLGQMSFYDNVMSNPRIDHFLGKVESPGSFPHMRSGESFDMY
Nature of the assay: protein-binding microarray (RPBM); PBS, 2% BSA, 51.3 ng/ul salmon testes DNA, 50 uM zinc acetate, 200 nM TF, 25 C, 1 h; high values mean tight binding. The following applies: protein: recombinant; tags: N-terminal polyhistidine and DsRed monomer fusion (pET32a); label: CyDye5-dUTP incorporated in the synthesized complementary strand; 3' TTTTT single-stranded linker to array surface; dsDNA, one strand shown. An outline of the steps: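 For the binding signal, per-feature fluorescence intensity was read in arbitrary units on an Axon 4000B scanner. Before scanning, a 2% BSA-blocked custom Agilent array made double-stranded with Cy5-dUTP was washed after 1 h at 25 °C with 200 nM protein and 50 µM zinc acetate. The proteins were Ni–NTA-purified transcription factors with N-terminal polyhistidine and DsRed fusions, expressed in E. coli BL21-CodonPlus.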
Turning to “ATGACTTAGATTGTGAAACGGATGAAGTAATATTTTGCCTCGGAGTCACCTAGTGCAG”, the binding signal is 14000 fluorescence intensity (a.u.).

Take “GCACTTAATCAACATCGTGATAAATGGAACACCTCCAGTCCGGAGTCACCTAGTGCAG”: the binding signal is 10100 fluorescence intensity (a.u.).

In the case of “CATCTAATTGCCACATAAGCGCCACGTCAACGACACGTTGCGGAGTCACCTAGTGCAG”, the binding signal was 30700 fluorescence intensity (a.u.). In the case of “GCATGTATCTAATTAACCCTATCTATTTTCATGTATGACACGGAGTCACCTAGTGCAG” it was 8100 fluorescence intensity (a.u.); in that of “GTGAAGAACAATAATTGGCAATCTTTGTACTCTTTTGTCACGGAGTCACCTAGTGCAG”, 39100 fluorescence intensity (a.u.). Next, “ATTTACTAATCAAGAGGACCAATAATTCCCTTGACTAGCTCGGAGTCACCTAGTGCAG”: 11500 fluorescence intensity (a.u.); “CAAAGCCAATTATTATAGAGATTGTACAATGAATGACTACCGGAGTCACCTAGTGCAG”: 9230 fluorescence intensity (a.u.). In the case of “CATTAATAATTGGTTCCATTTATCATACACACATAACGTCCGGAGTCACCTAGTGCAG” it was 26500 fluorescence intensity (a.u.); in that of “TAATATAATAGATTTTCAGTCAGTTAGTGCTATTTGGAGACGGAGTCACCTAGTGCAG”, 4800 fluorescence intensity (a.u.); in that of “CATCATGAAATCATTGTAACTGATTGATCTGTAATTCACTCGGAGTCACCTAGTGCAG”, 21300 fluorescence intensity (a.u.). On to “CATTTATATTGATGTAAGATTCATTAACATGTGAGAAATGCGGAGTCACCTAGTGCAG”, for which the binding signal is 6760 fluorescence intensity (a.u.). As to “TGATTAGGGATAATTACTACTCCCATTGCTTGCTTTCCTCCGGAGTCACCTAGTGCAG”, the binding signal was 4290 fluorescence intensity (a.u.). Next, “ACTCATGCTTACTTGATTGATAGTGGAAGAACCTTTTCTTCGGAGTCACCTAGTGCAG”: 28200 fluorescence intensity (a.u.); “GAGCAATCTATTATTCAGATTACTTTAAGCTGGTAAAGCGCGGAGTCACCTAGTGCAG”: 5940 fluorescence intensity (a.u.); “ACAACCAATCACACTAAATCATGCGCATTGAACTAGAGCCCGGAGTCACCTAGTGCAG”: 33900 fluorescence intensity (a.u.). In the case of “TAACTAATCATAACTGCAAGCACATGTGTCTAGTCTAGAACGGAGTCACCTAGTGCAG” it was 8390 fluorescence intensity (a.u.). Regarding “ACACGCCGTGAATACGCCGTGATTGGGCACTGTTCGGTGTCGGAGTCACCTAGTGCAG”, the binding signal is 5030 fluorescence intensity (a.u.). Next, “GGGAATACTAAATGAATTGATCAAAATCAGGATTGTTCATCGGAGTCACCTAGTGCAG”: 4340 fluorescence intensity (a.u.); “TTTATAATAATTGTAAGTTGTCAGTCCACGTAATTGGAGCCGGAGTCACCTAGTGCAG”: 13700 fluorescence intensity (a.u.). Next, “TTTCCTGTTTACGAATATGATTAATTTTGGTGTTCCGTCGCGGAGTCACCTAGTGCAG”: 15300 fluorescence intensity (a.u.); “CCAACCAGCTGATTTGCAACTTGCCAGTCTGTAATGCATACGGAGTCACCTAGTGCAG”: 3740 fluorescence intensity (a.u.). In the case of “CATCAATAATGAAGAAGAAACAAACTAAATACTACCAATCCGGAGTCACCTAGTGCAG” it was 3670 fluorescence intensity (a.u.); in that of “CTTTTGTTTCTTTTGATTGCCCGTTCTGAAAGTGATAAACCGGAGTCACCTAGTGCAG”, 8390 fluorescence intensity (a.u.); in that of “ATCAATAATTGAACATATTTTCATAATAAATTTGTCTTGGCGGAGTCACCTAGTGCAG”, 42100 fluorescence intensity (a.u.). For the sequence “TAAGCTTAATCAATCCATCATTGGCAAATATTTACTATAGCGGAGTCACCTAGTGCAG”, the binding signal is 8680 fluorescence intensity (a.u.). “ATAAATTATTGTGTTACACTGATGTGCCATTCTATGAGTGCGGAGTCACCTAGTGCAG”: the binding signal is 23600 fluorescence intensity (a.u.). Next, “AGAGATGATAGAAATTGATAGGGAGTTTAGTTAGAGATTACGGAGTCACCTAGTGCAG”: 26400 fluorescence intensity (a.u.). In the case of “TCAGTCAATTTATAGTTGTTGTTGAGAGGATTTAGAATAGCGGAGTCACCTAGTGCAG” it was 5170 fluorescence intensity (a.u.); in that of “AGTCAACAGATAATTACTTAGTAGGACAAAACCAATATCGCGGAGTCACCTAGTGCAG”, 5370 fluorescence intensity (a.u.); in that of “TTAATTAAACACATCCACTATAAAACTCATAGGCAACAATCGGAGTCACCTAGTGCAG”, 3970 fluorescence intensity (a.u.).

For the sequence “AGTCTAATTCCTCCATGATTTCACAATGTGGTGCTACAGTCGGAGTCACCTAGTGCAG”, the binding signal was 9510 fluorescence intensity (a.u.). In the case of “ACTAGGACTAGTAGATTAATTAATGTTTCTTTCTCTATTTCGGAGTCACCTAGTGCAG” it was 3860 fluorescence intensity (a.u.); in that of “TGATGAATTAGAAATTAATTATTATTTTAAAGATTATCTTCGGAGTCACCTAGTGCAG”, 10000 fluorescence intensity (a.u.). Next, “TTGATTTTACAAAATCTGTTATTACTGCTGATATCAAGTCCGGAGTCACCTAGTGCAG”: 4070 fluorescence intensity (a.u.); “TTTCAGAACAAAATTTGAATGCTATGATTATATATAGGGACGGAGTCACCTAGTGCAG”: 3330 fluorescence intensity (a.u.); “TCCAGCCAAAATTTAAATTTAAAACTCAATTTTAAAGTTACGGAGTCACCTAGTGCAG”: 3840 fluorescence intensity (a.u.). Next, “GTAATTATAATTTATTTTGTTATGAGTTGTTTTATCACTCCGGAGTCACCTAGTGCAG”: 6220 fluorescence intensity (a.u.); “CATGATCACAACCATGACTACAATTAATAACTTGGCAGCACGGAGTCACCTAGTGCAG”: 3790 fluorescence intensity (a.u.); “ATTTTCTATAATTACGTATATGCCCCACACGAACAGTATTCGGAGTCACCTAGTGCAG”: 4820 fluorescence intensity (a.u.). For the sequence “GAAATTAGCATTAAATGAAATTTTCCTTTGGATTTTCTACCGGAGTCACCTAGTGCAG”, the binding signal was 10600 fluorescence intensity (a.u.). Next, “GTGTGGAGTTAAATTGGTAGGTGCCTTTGATGCTTTCACGCGGAGTCACCTAGTGCAG”: 4160 fluorescence intensity (a.u.). With “CTACCATTAATGCTAAACTAAATTTCCAAATGACCCTCCCCGGAGTCACCTAGTGCAG”, the binding signal is 6060 fluorescence intensity (a.u.).
